Hit rate of the full screen: of about 310,000 compounds, about 2,200 (0.71%) showed an effect of 50% or more. The effect is printed as a negative number. This is one part of the list.
molecular target: human ether-à-go-go-related gene (hERG) potassium channel (human, UniProt Q12809); test: primary screen, population patch clamp on CHO cells stably expressing hERG
Sequence (Q12809 whole entry, looked up): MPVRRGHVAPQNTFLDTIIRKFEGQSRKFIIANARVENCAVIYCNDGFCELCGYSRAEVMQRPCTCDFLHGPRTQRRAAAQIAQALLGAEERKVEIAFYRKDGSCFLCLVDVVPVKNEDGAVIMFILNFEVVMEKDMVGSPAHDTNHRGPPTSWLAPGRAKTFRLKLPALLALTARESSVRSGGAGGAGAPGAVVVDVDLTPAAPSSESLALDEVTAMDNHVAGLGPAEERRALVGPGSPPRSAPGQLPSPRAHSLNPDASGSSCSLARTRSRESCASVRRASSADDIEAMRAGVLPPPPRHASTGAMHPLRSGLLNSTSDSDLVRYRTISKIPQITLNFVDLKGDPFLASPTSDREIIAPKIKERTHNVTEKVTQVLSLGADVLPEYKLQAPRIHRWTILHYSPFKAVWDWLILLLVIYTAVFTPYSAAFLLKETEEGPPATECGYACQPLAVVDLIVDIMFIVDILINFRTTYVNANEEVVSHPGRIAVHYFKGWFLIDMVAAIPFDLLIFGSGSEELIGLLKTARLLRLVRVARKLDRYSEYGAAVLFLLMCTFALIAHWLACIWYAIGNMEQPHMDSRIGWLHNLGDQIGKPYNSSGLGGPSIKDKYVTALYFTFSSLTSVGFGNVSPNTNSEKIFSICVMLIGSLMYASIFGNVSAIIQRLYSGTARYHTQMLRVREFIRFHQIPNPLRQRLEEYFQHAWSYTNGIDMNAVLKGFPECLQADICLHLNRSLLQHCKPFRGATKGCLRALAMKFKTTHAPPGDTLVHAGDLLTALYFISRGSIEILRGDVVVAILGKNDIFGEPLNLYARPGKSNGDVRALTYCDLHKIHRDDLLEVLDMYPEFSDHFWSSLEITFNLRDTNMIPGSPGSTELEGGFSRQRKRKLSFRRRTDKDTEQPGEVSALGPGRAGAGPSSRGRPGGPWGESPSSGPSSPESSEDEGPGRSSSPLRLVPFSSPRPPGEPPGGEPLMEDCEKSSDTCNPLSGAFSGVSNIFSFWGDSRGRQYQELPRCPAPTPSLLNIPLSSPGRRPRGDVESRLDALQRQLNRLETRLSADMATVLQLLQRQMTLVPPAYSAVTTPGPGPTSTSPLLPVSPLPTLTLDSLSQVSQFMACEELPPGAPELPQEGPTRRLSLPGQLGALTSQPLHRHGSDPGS

SMILES | hERG current change (%, negative = inhibition) at 1uM
COc1ccc(/C=C2/C(=O)ON=C2c2ccccc2)cc1OC | 4.35%
CC(O)CNc1nc2c(c(=O)n(Cc3cccc(Cl)c3)c(=O)n2C)n1C (stereo not drawn) | 10.6%
CS(=O)(=O)Nc1cccc(C2=NN(C(=O)c3ccccc3Cl)C(c3ccccc3O)C2)c1 (stereo not drawn) | 5.82%
Cc1ccc(NC(=S)NCc2ccc3c(c2)OCO3)c(C)c1 | 8.68%
Cc1cccnc1NC(=O)Nc1cccc(C(F)(F)F)c1 | -18.9%
Cc1ccc2c(c1)nnn2C1CCN(S(=O)(=O)c2ccc(C(=O)N(C)C3CCCCC3)cc2)CC1 | 13.9%
COc1ccc2[nH]c(=O)c(CN(Cc3ccco3)Cc3nnnn3Cc3ccccc3)cc2c1 | 9.85%
O=C(NCCc1nccs1)C1CCC(=O)N(Cc2cccc(C(F)(F)F)c2)C1 (stereo not drawn) | 5.62%
O=C(COC(=O)c1ccc(CN2CCCC2=O)cc1)Nc1ccc(F)cc1 | 7.31%
Cc1ccc(C)c(/C=C2\CCn3c2nc2cc(C(=O)O)ccc2c3=O)c1 | 13.2%
COc1cc(CNCCO)cc(Cl)c1OCc1ccc(Cl)cc1Cl.Cl | 6.8%
CCOC(=O)/C(C#N)=C(\N)C(C)C(=O)Nc1ccccn1 (stereo not drawn) | 2.14%
Nc1ccc(Oc2ncccn2)c(Cl)c1 | 7.14%
O=C(Nc1cccc2ccccc12)N1CC=CCC1 | 6.35%
O=C(c1ccccc1)N1CCN(CC#CC2(O)CCCCC2)CC1 | 17.8%
Cc1cc(Nc2ccccc2)n(C(=O)c2ccc(N)cc2)n1 | -1.63%
CCCN(CCC)CCCNC(=O)c1cn(CC)c2ccc(S(=O)(=O)N(C)C3CCCCC3)cc2c1=O | -46.1%
CCn1c(C)nc2cc(C(N)=O)ccc21 | 16.7%
O=C(COC(=O)c1ccc(Br)o1)NCC(=O)Nc1ccc(F)cc1 | 9.38%
Cc1nn(CC(=O)Nc2ccc3c(c2)OCO3)c(C)c1[N+](=O)[O-] | -0.0306%
CCN(Cc1ccncc1)C(=O)c1cc(Br)cc(Br)c1O | 8.5%
CC1CCN(C(=O)C2CCN(S(=O)(=O)c3cnc[nH]3)CC2)CC1 | 7.57%
CCOC(=O)N1CC=C2C(C#N)=C(N)C(C#N)(C#N)[C@H](c3cccs3)[C@H]2C1 | -10.1%

SMILES | hERG current change (%, negative = inhibition) at 1uM
Cc1cc(N)c(-n2cc3c(=O)n(C)c(=O)n(C)c3c2)cc1C | 3.23%
Cn1c(=O)n(Cc2ccccc2)c(=O)c2c1nc1n2CCCN1C1CCCCC1 | -0.59%
Cc1ccc(S(=O)(=O)N2CCCCC2)cc1C(=O)NCCc1ccccc1 | 9.39%
Cc1ccc(NC(=O)c2ccc(=O)[nH]c2)cc1S(=O)(=O)N1CCCCC1 | 5.65%
CCOC(=O)c1cc2c(ccn2-c2ccc(F)cc2)n1CC(=O)N(CC)CC | -0.733%
COc1ccc(OCC(=O)Nc2ccncc2)cc1 | 8.47%
CN(CC(=O)Nc1cccc(Cl)c1)S(=O)(=O)c1ccc2[nH]c(=O)oc2c1 | 9.95%
OC(c1ccccc1)c1nc2ccccc2s1 (stereo not drawn) | 1.13%
C=C(C)c1sc(-c2ccc(Cl)cc2)nc1C | 18.2%
COc1ccc(-c2cc(C(=O)N/N=C/c3cccnc3)c3cc(C)cc(C)c3n2)cc1 | 12.6%
O=C(COc1ccccc1Cl)Nc1ccc(C(=O)c2ccc(C(=O)O)cc2)cc1 | 17.7%
O=S(=O)(c1ccc(OCC(O)CN2CCN(c3ccccc3Cl)CC2)cc1)N1CCOCC1 (stereo not drawn) | 0.0986%
COC(=O)c1ccc(C)c(NC(=O)Cc2ccc([N+](=O)[O-])cc2)c1 | 9.39%
CCN1CCN(c2ccc(NC(=O)c3ccccc3F)cc2Cl)CC1 | -16.5%
COc1ccc(C(C(O)C(=O)c2c[nH]c3ccccc23)N2CCN(c3ccc(OC)cc3)CC2)cc1 (stereo not drawn) | 2.28%
Cc1cc2nnc(SCC(=O)N3CCCCCC3)n2c(N)n1 | 5.65%
CC(C)CC(=O)N1CCN(Cc2cccc(Cl)c2)CC1 | 10.6%
CC(C)(C)C(=O)Cn1ncc(N2CCCC2)c(Br)c1=O | 7.65%
CCOC(=O)c1c(C)c(C(=O)NCCCOC)c(C)n1C | 6.53%
O=C(NCc1ccccc1)c1onc(CS(=O)(=O)c2ccc(Cl)cc2)c1C(=O)NCc1ccccc1 | 8.43%
Cc1nc(=O)c(-c2ccccc2)c(C)n1-c1cccc(/C=C/C(=O)O)c1 | 16.2%
CCCCN1CC[C@H]2C=CC[C@@H](C(=O)N3CCN(c4ccccc4)CC3)[C@H]2C1=O | 16.5%
Cc1ccc(C(=O)CCNc2ccc(F)c(Cl)c2)o1 | -1.26%

SMILES | hERG current change (%, negative = inhibition) at 1uM
CC12CN(NC(=O)c3ccccc3F)C3(C#N)CC1CCC23C (stereo not drawn) | 1.67%
CCOc1ccc(/C=C(\C#N)C(=O)Nc2cccnc2)cc1 | -0.124%
CC1CC1C(=O)Nc1nc(-c2cccs2)c(-c2cccs2)s1 (stereo not drawn) | 7.23%
Nc1nc(/C=C/c2ccc(F)cc2)nc(-c2ccccc2O)n1 | 12.5%
COc1ccc(C(=O)Nc2nc3ccccc3[nH]2)cc1S(=O)(=O)N1CCCC1 | 6.81%
Cc1nn(C)c(Cl)c1CN1CCC(CO)(CC2CCCCO2)CC1 (stereo not drawn) | 10.3%
COc1ccc(-c2cc(C(F)(F)F)c(C#N)c(SCC(=O)Nc3ccccc3C#N)n2)cc1 | 6.2%
N=c1c(C(=O)NCC2CCCO2)cc2c(=O)n3ccccc3nc2n1Cc1ccccc1Cl (stereo not drawn) | -46.8%
CC1=C(C#N)C(C)C2=C(CC(C)(C)CC2=O)N1 (stereo not drawn) | 1.86%
COc1cc(/C=N/NC(=O)c2cccc(S(=O)(=O)N3CCCCC3)c2)cc(Br)c1O | 5.94%
COc1ccc(C2=C(SC)CC2=NC(C)(C)C)cc1 | 5.34%
CCCCC(=O)Nc1cccc(C(C)O)c1 (stereo not drawn) | 14.2%
CC(=O)c1ccc(N2CCN(C(=O)c3n[nH]c4ccccc34)CC2)cc1 | -12.3%
CC(C)(CNC(=O)c1cc2c(s1)CCCC2)N1CCOCC1 | -2.05%
O=C(Nc1ccc(S(=O)(=O)N2CCOCC2)cc1)C1CCCCC1 | -3.69%
CN(C)CCNC(=O)Cn1ccc2cc(S(=O)(=O)N3CCCCCC3)ccc21 | 7.01%
CCC1CCCCN1C(=O)CCNS(=O)(=O)c1ccc2c(c1)oc(=O)n2C (stereo not drawn) | 2.86%
Cc1cc(C)c(S(=O)(=O)c2ccccc2)c(Cl)n1 | 7.58%
Cc1cccc(S(=O)(=O)Nc2ccc(-c3nc4ccc(C)cc4s3)cc2)c1 | 14.8%
CC(C)Oc1cccc(C(=O)C2CCCN(C(=O)c3ccoc3)C2)c1 (stereo not drawn) | 5.95%
Cc1ccc(NC(=O)COC(=O)C2(c3ccc(Cl)cc3)CCCC2)cc1 | 24.7%
COc1ccc(-c2ccnc(SCC(=O)N3CCOCC3)n2)cc1 | 8.48%
Cc1c(C(=O)N/N=C/c2cccnc2)sc(=S)n1C | -1.96%

SMILES | hERG current change (%, negative = inhibition) at 1uM
NC(=O)c1cc(S(=O)(=O)NCCc2ccc(Cl)cc2)cs1 | 17%
CC(C)(C)c1ccccc1OCCCCCn1ccnc1 | 2.81%
O=S(=O)(Nc1ccc(S(=O)(=O)N2CCCC2)cc1)c1ccccc1Br | 9.25%
Cc1cc(C)c2cc(CN(CCN(C)C)C(=O)Nc3ccccc3Cl)c(=O)[nH]c2c1 | -7.07%
CC(C)(C)c1ccc(C(=O)NC(=S)NCc2cccnc2)cc1 | 12%
COc1cc(/C=N/NC(=O)CNC(=O)c2ccncc2)ccc1OC(C)=O | 2.71%
O=C(NCCCN1CCCC1=O)c1ccc2c(c1)OCO2 | 11.3%
O=C(COc1cccc2ccccc12)N1CCN(c2ccccn2)CC1 | -9.04%
CCOc1ccc(-c2noc(CCC(=O)O)n2)cc1 | 0.837%
Cc1cc(C(C)(C)C)cc(C)c1S(=O)(=O)N1CC(=O)Nc2ccccc21 | 19.5%
COc1ccc(C(=O)N/N=C2\CCc3ccccc32)cc1OC | 8.38%
Cc1cc(C)n(-c2nnc(N3CCN(c4ccccc4)CC3)nn2)n1 | 4.59%
Cc1cc(Br)cc(C)c1NC(=S)NC(=O)CC(C)C | 9.22%
CC(C)(C)c1[nH]nc2c1C(c1ccsc1)C(C#N)=C(N)O2 (stereo not drawn) | 16.8%
COc1ccc(OC)c(NC(=O)C2CC(=O)N(CCc3ccccc3)C2)c1 (stereo not drawn) | 3.44%
CCOc1cccc(NC(=O)CSc2sc3c(O)cc(=O)[nH]c3c2C#N)c1 | 17.5%
COc1ccc(CCC(=O)OCC(=O)c2c(N)n(CC(C)C)c(=O)n(C)c2=O)cc1 | -4.89%
O=C(CC(=O)Nc1ccc(Cl)cc1)N/N=C\c1cccc(F)c1 | 14.6%
Cc1ccc2nc(C(F)OC(F)(F)F)[nH]c2c1 (stereo not drawn) | 8.11%
NC(=O)C1CCN(C(=O)COc2cccc3ccccc23)CC1 | 2.49%
NS(=O)(=O)c1ccc(CCNC(=O)COC(=O)CC(c2ccccc2)c2ccccc2)cc1 | -1.77%

From article PMC4336329 (PLoS ONE, 2015)
